From PubChem BioAssay AID2546 (National Center for Advancing Translational Sciences (NCATS), 2010)
Out of some 310,000 compounds screened, about 11,000 (3.5%) were called active. The inconclusive results got no clear call from the source; some entries with a clear call stand among them for comparison. The call rests on the fitted dose curve; in most records, active means well fitted inhibition curve with a large enough effect; inconclusive means small, poorly fitted or top-dose-only effect, or effect the other way; inactive means flat fitted curve, though single readings scatter. No potency is given beside an inconclusive call; the fits are too rough.

Assay: VP16 counterscreen qHTS for inhibitors of ROR gamma transcriptional activity;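 further: Gal4-VP16 expression switched on by copper sulfate through the metallothionein promoter; nearly all actives have a fitted effect of over 50% in size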
Details: Drosophila S2 Gal4-VP16 UAS-luciferase, luminescence, 20 h; activity, negative = inhibition: at 53.6 µM (top of the series)
On the % scale 0 is the no-effect control and ±100 the full control effect; potency means the concentration at half of the fitted maximal effect; tags describe the fitted curve by direction and shape.

SMILES | Potency | activity, negative = inhibition
C=CCN(CC=C)C(=S)NC(=O)c1ccc(OC)c(Br)c1 | active: 0.708 µM | 
Cc1noc(/C=C/N(C)C)c1S(=O)(=O)N1CCCC(C(=O)NCCC2=CCCCC2)C1 (configuration not stated) |  | inactive: -5.13%
O=C1c2cccc3cccc(c23)C(=O)N1c1ccc2ncccc2c1 | inconclusive [inhibitor, single point] | 
Cc1[nH]c2ccccc2c1CN1CCN(c2ccccn2)CC1 | inconclusive [inhibitor, single point] | 
COc1ccc(CC(=O)Nc2nc(C(C)(C)C)cs2)cc1 | inconclusive [inhibitor, single point] | 
O=C(Nc1ccccc1-c1nc2ccccc2[nH]1)c1ccc(S(=O)(=O)N2CCCCC2)cc1 |  | inactive: -3.89%
Cc1cnn(C(=S)NCCc2ccccc2)c1 | inconclusive [inhibitor, single point] | 
O=C(CCCN1C(=O)/C(=C\c2ccccc2)SC1=S)Nc1ccc(O)cc1 | active: 1.78 µM | 
COC(=O)COc1ccc(S(=O)(=O)NCCC2=CCCCC2)cc1C | inconclusive [inhibitor, single point] | 
Cc1ccc(NC(=O)N2CCOCC2)c(C)c1 |  | inactive: 0.839%
Cc1cc(OC(=O)c2ccccc2Cl)c([N+](=O)[O-])c(=O)[nH]1 | inconclusive [inhibitor, single point] | 
CC1CCCC2(C1)NC(=S)c1c(sc3c1CCCC3)N2 (configuration not stated) | inconclusive [inhibitor, single point] | 
COc1cccc(CNC(=O)c2cccs2)c1 | inconclusive [inhibitor, single point] | 
Cc1ncc(CO)c2cc(S(=O)(=O)c3ccc(F)cc3)c(=O)oc12 |  | inactive: 4%
Cc1nc(/C(=N/O)C(N)=O)cs1 |  | inactive: -1.16%
O=C(Nc1ncnc2sc3c(c12)CCCCC3)c1ccccc1 | active: 20 µM | 
COc1ccc2c(c1OC)C(=O)N1c3ccccc3C(=O)N(c3ccccc3)C21 (configuration not stated) |  | inactive: -0.278%
C=C(C)C(O)/C=C/c1ccc(Br)cc1 (configuration not stated) | inconclusive [inhibitor, single point] | 
CCCn1nc([N+](=O)[O-])c(C(C#N)c2nc3ccccc3s2)c(Cl)c1=O (configuration not stated) | inconclusive [inhibitor, single point] | 
CC(C)C(=O)N1CCN(c2ccc(NC(=O)c3cccs3)cc2Cl)CC1 | inconclusive [inhibitor, single point] | 
Cc1ccc(CNC(=S)Nc2ccc(OC(F)F)cc2C)cc1 | active: 4.47 µM | 
Cc1cc(-c2ccc(C(C)C)c(S(=O)(=O)N3CCC(C)CC3)c2)on1 |  | inactive: 3.89%
COc1cccc(/C=C2\SC(=S)N(CCCC(=O)NC3=NCCS3)C2=O)c1 | active: 0.708 µM | 
Nn1c(Cc2ccc(F)cc2)n[nH]c1=S |  | inactive: -5.98%
COc1ccccc1C(=O)NC(=S)Nc1ccccc1N1CCCCC1 | active: 10 µM | 
COC(=O)c1ccc(C)c(NS(=O)(=O)c2ccc3c(c2)OCCO3)c1 | inconclusive [inhibitor, partial curve] | 

SMILES | Potency | activity, negative = inhibition
Cc1ccc(CNc2nc3ccccc3n2C)cc1 | inconclusive [inhibitor, partial curve, poor fit] | 
CS(=O)(=O)Nc1cccc(-c2nc(Nc3ccc(F)cc3)c3ccccc3n2)c1 | inconclusive [inhibitor, single point] | 
CCCCN(C)CC(O)Cn1cc(/C=C/C(=O)c2ccc(C)cc2)c2ccccc21 (configuration not stated) | inconclusive [inhibitor, single point] | 
CN(C)c1cccc(C(=O)Nc2nc3ccccc3[nH]2)c1 | active: 11.2 µM | 
O=C(Nc1ccccc1N1CCOCC1)c1ccc2c(c1)OCCO2 | inconclusive [inhibitor, partial curve, poor fit] | 
CON(C)S(=O)(=O)c1ccc2c(c1)N(Cc1ccc(C)cc1)C(=O)C1CCCN21 (configuration not stated) |  | inactive: 5.04%
CCc1ccc2oc(-c3ccc(N)cc3)nc2c1 | inconclusive [inhibitor, single point] | 
Nc1nccc(-c2nn(-c3ccc(Cl)cc3)ccc2=O)n1 |  | inactive: 0.941%
O=C(CSc1nc2ccccc2n1CCc1ccccc1)c1ccc(O)c(O)c1 | inconclusive [inhibitor, single point] | 
CCOc1cccc(/C=N/NC(=S)NCCN2CCOCC2)c1O | active: 2.24 µM | 
CCN(CCNC(=O)c1ccc(CSc2nc3ccncc3[nH]2)cc1)c1ccccc1 | inconclusive [inhibitor, single point] | 
CCCc1cc(C(=O)N(C2CCCCC2)C2CCCCC2)no1 |  | inactive: -2.08%
CN(Cc1cc(=O)n2ccsc2n1)Cc1nc2ccccc2c(=O)[nH]1 | inconclusive [inhibitor, single point] | 
CC(=O)c1[nH]c(C)c(C(=O)N2CCCC(Nc3cccc(F)c3)C2)c1C (configuration not stated) |  | inactive: 2.98%
CC1=NN(C(=O)COc2ccc(C)c(C)c2)C(O)(c2ccc(Cl)cc2)C1 (configuration not stated) | active: 15.8 µM | 
CC1CCN(c2ccc(C(=O)NCc3cccs3)cn2)CC1 | inconclusive [inhibitor, single point] | 
CCCn1c(NC(=O)c2ccc(Br)cc2)nc2ccccc21 | active: 1.26 µM | 
COc1ccccc1-c1nnc(NC(=O)C(C)SC2=NCCS2)s1 (configuration not stated) | inconclusive [inhibitor, single point] | 
O=C1NC(=O)C2(COC3(CCCC3)OC2)S1 |  | inactive: -9.07%
COCCn1nnnc1C(c1ccc(C)cc1)N1CCN(Cc2ccc3c(c2)OCO3)CC1 (configuration not stated) |  | inactive: 4.23%
N=c1sccn1CC(=O)Nc1ccccc1Sc1ccccc1 |  | inactive: 4.03%
CCOC(=O)c1c(NC(=O)CSc2nc3ccccc3s2)sc(C(C)=O)c1C | inconclusive [inhibitor, single point] | 
CCOc1cc2sc(N3CCC(C(=O)NCCCN4CCCC4=O)CC3)nc2cc1Br |  | inactive: -14%
CNC(=O)c1[nH]cnc1C(=O)Nc1ccc(F)cc1 | inconclusive [inhibitor, single point] | 
CCOc1ccc(N=C2NC(=O)CS2)cc1 |  | inactive: 2.63%
O=C(O)C(Cc1ccccc1)N1C(=O)/C(=C/C=C/c2ccco2)SC1=S (configuration not stated) |  | inactive: -1.32%

SMILES | Potency | activity, negative = inhibition
COc1cc(/C=N/NC(=O)c2ccc(CN(C)S(=O)(=O)c3ccc(C)cc3)cc2)ccc1O | inconclusive [inhibitor, single point] | 
COc1ccc2[nH]c(C)c(CCN(Cc3cccs3)C(=S)Nc3cccc(F)c3)c2c1 | inconclusive [activator, single point] | 
O=c1oc2ccccc2c(NC(c2ccccc2)c2ccccc2)c1[N+](=O)[O-] |  | inactive: -4.83%
Cc1cccc(N=C2NC(=O)/C(=C/C=C/c3ccco3)S2)c1C |  | inactive: -13.3%
COc1cc2c(C#N)c(N3CCOCC3)nc(N)c2c(N)n1 | inconclusive [inhibitor, full curve, poor fit] | 
COc1cc(S(=O)(=O)Nc2ccc(C)cc2)ccc1N=Cc1c(C)[nH]n(-c2ccccc2)c1=O | inconclusive [inhibitor, full curve, poor fit] | 
O=C1/C(=C/c2ccc([N+](=O)[O-])cc2)Oc2cc(O)ccc21 | inconclusive [inhibitor, single point] | 
Nc1nc(NCc2ccccc2)nc(Nc2ccc(F)cc2)c1[N+](=O)[O-] |  | inactive: 5.44%
Nc1nc(NCC2CCCO2)nc(Nc2ccccc2)c1[N+](=O)[O-] (configuration not stated) | inconclusive [inhibitor, single point] | 
O=C(NC(=S)NCc1ccccc1)c1ccccc1F | inconclusive [inhibitor, single point] | 
COc1cc(/C=N/NC(=S)NCCc2ccccc2)cc(OC)c1OC | inconclusive [inhibitor, single point] | 
Cc1cc(C)nc(SCC(=O)Nc2ccnc3ccccc23)n1 | active: 0.891 µM | 
O=C(Nc1ncc(Cc2ccccc2Cl)s1)C1CCCO1 (configuration not stated) | inconclusive [inhibitor, partial curve, poor fit] | 
C=CCSc1nnc(NC(=O)C23CC4CC(CC(NC(C)=O)(C4)C2)C3)s1 | active: 12.6 µM | 
COc1ccc(NS(=O)(=O)c2cccc(NC(=O)COc3ccc(OC)cc3)c2)cc1 |  | inactive: 0.368%
O=C(NCc1cccnc1)/C(=C\c1ccc(-c2ccc(Br)cc2)o1)S(=O)(=O)c1ccccc1 | inconclusive [inhibitor, single point] | 
CC(C)Cc1ccc(C(C)C(=O)Nc2cccnc2)cc1 (configuration not stated) | inconclusive [inhibitor, single point] | 
COC(=O)c1ccc(S(=O)(=O)N2CCC(O)CC2)n1C |  | inactive: 3.42%
CCCn1c(/N=C/c2cc(OC)ccc2O)nc2ccccc21 | inconclusive [inhibitor, single point] | 
COc1ccc(C(=O)N/N=C2\SCC(=O)N2Cc2ccc3c(c2)OCO3)c(OC)c1 | inconclusive [inhibitor, single point] | 
Cn1c(/C(C#N)=C(\O)c2ccc(S(=O)(=O)N3CCCCC3)cc2)nc2ccccc21 | active: 10 µM | 
CC(=O)c1cccc(NC(=S)NCCC2=CCCCC2)c1 | active: 7.08 µM | 
O=C(CSc1nc2ccccc2c(=O)n1Cc1ccc(Cl)cc1)NCc1cccs1 | inconclusive [inhibitor, single point] | 
CCS(=O)(=O)N1Cc2ccccc2CC1C(=O)Nc1nc2ccccc2s1 (configuration not stated) | active: 4.47 µM | 
CCOc1ccc(-n2c(SCc3cc(=O)oc4cc(C)ccc34)nnc2-c2cccnc2)cc1 |  | inactive: -4.22%
